In patent publication US11366114B2, “Genetically encoded fluorescent sensors for detecting ligand bias and intracellular signaling through cAMP pathways” (MONTANA MOLECULAR LLC, priority 2013, dated 2022):

B1: Library 5-1 G12: cAMP sensor; SEQID 8 in Table 1, SEQ ID NO: 9 in Table 3 (protein)
chain: MVAAHAAHSSSSAEWIACLDKRPLERSSEDVDIIFTRLKEVKAFEKFHPNLLHQICLCGYYENLEKGITLFRQGDIGTNWYAVLAGSLDVKVSETSSHQDAVTICTLGIGTAFGESILDNTPRHATIVTRESSELLRIEQKDFKALWEKYRQYMAGLLAPPYGVMETGSNNDRIPDKENTPLIEPHVPLRPANTITKVPSEKILRAGKILRNAILSRAPHMIRDRKYHLKTYRQCCVGTELVDWMMQQTPCVHSRTQAVGMWQVLLEDGVLNHVDQEHHFQDKYLFYRFLDDEHEDAPLPTEEEKKECDEELQDTMLLLSQMGPDAHMRMILRKPPGQRTVDDLEIIYEELLHIKALSHLSTTVKRELAGVLIFESHAKGGTVLFNQGEEGTSWYIILKGSVNVVIYGKGVVCTLHEGDDFGKLALVNDAPRAASIVLREDNCHFLRVDKEDFNRILRDVLENVYIKADKQKNGIKANFKIRHNIEDGGVQLAYHYQQNTPIGDGPVLLPDNHYLSVQSILSKDPNEKRDHMVLLEFVTAAGITLGMDELYKGGTGGSMVSKGEELFTGVVPIQVELDGDVNGHKFSVSGEGEGDATYGKLTLKFICTTGKLPVPWPTLVTTLTYGVQCFSRYPDHMKQHDFFKSAMPEGYIQERTIFFKDDGNYKTRAEVKFEGDTLVNRIELKGIDFKEDGNILGHKLEYNTRANTVRLKEHDQDVLVLEKVPAGNRASNQGNSQPQQKYTVMSGTPEKILEHFLETIRLEATLNEATDSVLNDFIMMHCVFMPNTQLCPALVAHYHAQPSQGTEQEKMDYALNNKRRVIRLVLQWAAMYGDLLQEDDVSMAFLEEFYVSVSDDARMIAALKEQLPELEKIVKQISEDAKAPQKKHKVLLQQFNTGDERAQKRQPIRGSDEVLFKVYCMDPTYTTIRVPVATSVKEVISAVADKLGSGEGLIIVKMSSGGEKVVLKPNDVSVFMTLTINGRLFACPREQFDSLTPLPEQEGPTVGTVGTFELMSSKDLAYQMTIYDWELFNCVHELELIYHTFGRHNFKKTTANLDLFLRRFNEIQFWVVTEICLCSQLSKRVQLLKKFIKIAAHCKEYKNLNSFFAIVMGLSNVAVSRLALTWEKLPSKFKKFYAEFESLMDPSRNHRAYRLTVAKLEPPLIPFMPLLIKDMTFTHEGNKTFIDNLVNFEKMRMIANTARTVRYYRSQPFNPDAAQANKNHQDVRSYVRQLNVIDNQRTLSQMSHRLEPRRP
B2: Library 1 C2: cAMP sensor; SEQID 10 in Table 1, SEQ ID NO: 11 in Table 3 (protein)
chain: MVAAHAAHSSSSAEWIACLDKRPLERSSEDVDIIFTRLKEVKAFEKFHPNLLHQICLCGYYENLEKGITLFRQGDIGTNWYAVLAGSLDVKVSETSSHQDAVTICTLGIGTAFGESILDNTPRHATIVTRESSELLRIEQKDFKALWEKYRQYMAGLLAPPYGVMETGSNNDRIPDKENTPLIEPHVPLRPANTITKVPSEKILRAGKILRNAILSRAPHMIRDRKYHLKTYRQCCVGTELVDWMMQQTPCVHSRTQAVGMWQVLLEDGVLNHVDQEHHFQDKYLFYRFLDDEHEDAPLPTEEEKKECDEELQDTMLLLSQMGPDAHMRMILRKPPGQRTVDDLEIIYEELLHIKALSHLSTTVKRELAGVLIFESHAKGGTVLFNQGEEGTSWYIILKGSVNVVIYGKGVVCTLHEGDDFGKLALVNDAPRAASIVLREDNCHFLRVDKEDFNRILRDVLENVYIKADKQKNGIKANFKIRHNIEDGGVQLAYHYQQNTPIGDGPVLLPDNHYLSVQSILSKDPNEKRDHMVLLEFVTAAGITLGMDELYKGGTGGSMVSKGEELFTGVVPIQVELDGDVNGHKFSVSGEGEGDATYGKLTLKFICTTGKLPVPWPTLVTTLTYGVQCFSRYPDHMKQHDFFKSAMPEGYIQERTIFFKDDGNYKTRAEVKFEGDTLVNRIELKGIDFKEDGNILGHKLEYNTREANTVRLKEHDQDVLVLEKVPAGNRASNQGNSQPQQKYTVMSGTPEKILEHFLETIRLEATLNEATDSVLNDFIMMHCVFMPNTQLCPALVAHYHAQPSQGTEQEKMDYALNNKRRVIRLVLQWAAMYGDLLQEDDVSMAFLEEFYVSVSDDARMIAALKEQLPELEKIVKQISEDAKAPQKKHKVLLQQFNTGDERAQKRQPIRGSDEVLFKVYCMDPTYTTIRVPVATSVKEVISAVADKLGSGEGLIIVKMSSGGEKVVLKPNDVSVFMTLTINGRLFACPREQFDSLTPLPEQEGPTVGTVGTFELMSSKDLAYQMTIYDWELFNCVHELELIYHTFGRHNFKKTTANLDLFLRRFNEIQFWVVTEICLCSQLSKRVQLLKKFIKIAAHCKEYKNLNSFFAIVMGLSNVAVSRLALTWEKLPSKFKKFYAEFESLMDPSRNHRAYRLTVAKLEPPLIPFMPLLIKDMTFTHEGNKTFIDNLVNFEKMRMIANTARTVRYYRSQPFNPDAAQANKNHQDVRSYVRQLNVIDNQRTLSQMSHRLEPRRP
B3: Library 2-1 B12: cAMP sensor; SEQID 9 in Table 1, SEQ ID NO: 10 in Table 3 (protein)
chain: MVAAHAAHSSSSAEWIACLDKRPLERSSEDVDIIFTRLKEVKAFEKFHPNLLHQICLCGYYENLEKGITLFRQGDIGTNWYAVLAGSLDVKVSETSSHQDAVTICTLGIGTAFGESILDNTPRHATIVTRESSELLRIEQKDFKALWEKYRQYMAGLLAPPYGVMETGSNNDRIPDKENTPLIEPHVPLRPANTITKVPSEKILRAGKILRNAILSRAPHMIRDRKYHLKTYRQCCVGTELVDWMMQQTPCVHSRTQAVGMWQVLLEDGVLNHVDQEHHFQDKYLFYRFLDDEHEDAPLPTEEEKKECDEELQDTMLLLSQMGPDAHMRMILRKPPGQRTVDDLEIIYEELLHIKALSHLSTTVKRELAGVLIFESHAKGGTVLFNQGEEGTSWYIILKGSVNVVIYGKGVVCTLHEGDDFGKLALVNDAPRAASIVLREDNCHFLRVDKEDFNRILRLENVYIKADKQKNGIKANFKIRHNIEDGGVQLAYHYQQNTPIGDGPVLLPDNHYLSVQSILSKDPNEKRDHMVLLEFVTAAGITLGMDELYKGGTGGSMVSKGEELFTGVVPIQVELDGDVNGHKFSVSGEGEGDATYGKLTLKFICTTGKLPVPWPTLVTTLTYGVQCFSRYPDHMKQHDFFKSAMPEGYIQERTIFFKDDGNYKTRAEVKFEGDTLVNRIELKGIDFKEDGNILGHKLEYNTRRILRDVEANTVRLKEHDQDVLVLEKVPAGNRASNQGNSQPQQKYTVMSGTPEKILEHFLETIRLEATLNEATDSVLNDFIMMHCVFMPNTQLCPALVAHYHAQPSQGTEQEKMDYALNNKRRVIRLVLQWAAMYGDLLQEDDVSMAFLEEFYVSVSDDARMIAALKEQLPELEKIVKQISEDAKAPQKKHKVLLQQFNTGDERAQKRQPIRGSDEVLFKVYCMDPTYTTIRVPVATSVKEVISAVADKLGSGEGLIIVKMSSGGEKVVLKPNDVSVFMTLTINGRLFACPREQFDSLTPLPEQEGPTVGTVGTFELMSSKDLAYQMTIYDWELFNCVHELELIYHTFGRHNFKKTTANLDLFLRRFNEIQFWVVTEICLCSQLSKRVQLLKKFIKIAAHCKEYKNLNSFFAIVMGLSNVAVSRLALTWEKLPSKFKKFYAEFESLMDPSRNHRAYRLTVAKLEPPLIPFMPLLIKDMTFTHEGNKTFIDNLVNFEKMRMIANTARTVRYYRSQPFNPDAAQANKNHQDVRSYVRQLNVIDNQRTLSQMSHRLEPRRP
B4: Library 2-2 F9: cAMP sensor; SEQID 12 in Table 1, SEQ ID NO: 13 in Table 3 (protein)
chain: MVAAHAAHSSSSAEWIACLDKRPLERSSEDVDIIFTRLKEVKAFEKFHPNLLHQICLCGYYENLEKGITLFRQGDIGTNWYAVLAGSLDVKVSETSSHQDAVTICTLGIGTAFGESILDNTPRHATIVTRESSELLRIEQKDFKALWEKYRQYMAGLLAPPYGVMETGSNNDRIPDKENTPLIEPHVPLRPANTITKVPSEKILRAGKILRNAILSRAPHMIRDRKYHLKTYRQCCVGTELVDWMMQQTPCVHSRTQAVGMWQVLLEDGVLNHVDQEHHFQDKYLFYRFLDDEHEDAPLPTEEEKKECDEELQDTMLLLSQMGPDAHMRMILRKPPGQRTVDDLEIIYEELLHIKALSHLSTTVKRELAGVLIFESHAKGGTVLFNQGEEGTSWYIILKGSVNVVIYGKGVVCTLHEGDDFGKLALVNDAPRAASIVLREDNCHFLRVDKEDFNRILRDVLENVYIKADKQKNGIKANFKIRHNIEDGGVQLAYHYQQNTPIGDGPVLLPDNHYLSVQSILSKDPNEKRDHMVLLEFVTAAGITLGMDELYKGGTGGSMVSKGEELFTRGVVPIQVELDGDVNGHKFSVSGEGEGDATYGKLTLKFICTTGKLPVPWPTLVTTLTYGVQCFSRYPDHMKQHDFFKSAMPEGYIQERTIFFKDDGNYKTRAEVKFEGDTLVNRIELKGIDFKEDGNILGHKLEYNTRNTVRLKEHDQDVLVLEKVPAGNRASNQGNSQPQQKYTVMSGTPEKILEHFLETIRLEATLNEATDSVLNDFIMMHCVFMPNTQLCPALVAHYHAQPSQGTEQEKMDYALNNKRRVIRLVLQWAAMYGDLLQEDDVSMAFLEEFYVSVSDDARMIAALKEQLPELEKIVKQISEDAKAPQKKHKVLLQQFNTGDERAQKRQPIRGSDEVLFKVYCMDPTYTTIRVPVATSVKEVISAVADKLGSGEGLIIVKMSSGGEKVVLKPNDVSVFMTLTINGRLFACPREQFDSLTPLPEQEGPTVGTVGTFELMSSKDLAYQMTIYDWELFNCVHELELIYHTFGRHNFKKTTANLDLFLRRFNEIQFWVVTEICLCSQLSKRVQLLKKFIKIAAHCKEYKNLNSFFAIVMGLSNVAVSRLALTWEKLPSKFKKFYAEFESLMDPSRNHRAYRLTVAKLEPPLIPFMPLLIKDMTFTHEGNKTFIDNLVNFEKMRMIANTARTVRYYRSQPFNPDAAQANKNHQDVRSYVRQLNVIDNQRTLSQMSHRLEPRRP

What follows are molecules tested on cAMP (assay: Fluorescence response of cAMP sensors to isoproterenol in HEK 293 cells co-expressing the beta adrenergic receptor). Details: in response to isoproternol.
Assay type: cell-based, human
How it was run: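 HEK 293 or HEK 293T cells were transiently co-transfected with sensor construct and beta adrenergic receptor, then imaged 24-48 h later in DPBS at 25 °C. Green fluorescence change (488/530 nm in plate reader) was recorded after isoproterenol, DMSO, forskolin or IBMX addition, background-subtracted.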

With B1 as the molecule, how does the “Relative Change in Fluorescence” value read?
The value was −39%.

With B2 as the molecule, how does the “Relative Change in Fluorescence” value read?
Its value is 36%.

B3 was tested. Which “Relative Change in Fluorescence” value did it give?
The value was −37%.

For B4, which “Relative Change in Fluorescence” value is on record?
Its value is −36%.
